Measured values: the supplement of paper PMC12015411
± gives the standard deviation of the averaged measurements. Bacterial growth in Mueller-Hinton broth at 37 °C with the drug at the dose given, alone or with nitroxoline. Checkerboards on E. coli BW25113: OD600 at the end of exponential growth as a fraction of no-drug wells. Colistin series: OD595 at 10.75 h as a fraction of the colistin-free well. 1 = full growth, lower = more inhibition. No active / inactive call per well. Checkerboard doses stop near each drug's IC75, and their values pile up at 1, as if capped there. Colistin and gentamicin are mixtures; one drawing stands for each.

Test system: Escherichia coli BW25113
Experiment: growth relative to no-drug wells (fraction of no-drug control); higher = more growth, less inhibition
Method: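 8 x 8 checkerboard in cation-adjusted Mueller-Hinton broth at 37 °C; OD600 at the end of exponential growth as a fraction of no-drug wells, two biological replicates.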

CO[C@H]1/C=C/O[C@@]2(C)Oc3c(C)c(O)c4c(O)c(c(/C=N/N5CCN(C)CC5)c(O)c4c3C2=O)NC(=O)/C(C)=C\C=C\[C@H](C)[C@H](O)[C@@H](C)[C@@H](O)[C@@H](C)[C@H](OC(C)=O)[C@@H]1C [Rifampicin]
nitroxoline concentration 0 µg/ml
Settings | growth
0.7185 µg/ml | 0.94 ± 0.033
1.3487 µg/ml | 0.831 ± 0.037
1.979 µg/ml | 0.7899 ± 0.0065
2.6092 µg/ml | 0.757 ± 0.011
3.2395 µg/ml | 0.7464 ± 0.0071
3.8697 µg/ml | 0.66 ± 0.0044
4.5 µg/ml | 0.72 ± 0.037

CO[C@H]1/C=C/O[C@@]2(C)Oc3c(C)c(O)c4c(O)c(c(/C=N/N5CCN(C)CC5)c(O)c4c3C2=O)NC(=O)/C(C)=C\C=C\[C@H](C)[C@H](O)[C@@H](C)[C@@H](O)[C@@H](C)[C@H](OC(C)=O)[C@@H]1C [Rifampicin] + Oc1ccc([N+](=O)[O-])c2cccnc12 [nitroxoline]
growth
Settings | nitroxoline concentration 0.136 µg/ml | nitroxoline concentration 0.255 µg/ml | nitroxoline concentration 0.374 µg/ml | nitroxoline concentration 0.493 µg/ml | nitroxoline concentration 0.612 µg/ml | nitroxoline concentration 0.731 µg/ml | nitroxoline concentration 0.75 µg/ml
0.7185 µg/ml | 0.878 ± 0.032 | 0.923 ± 0.11 | 0.926 ± 0.031 | 0.846 ± 0.0099 | 0.802 ± 0.023 | 0.776 ± 0.02 | 0.7232 ± 0.0045
1.3487 µg/ml | 0.813 ± 0.011 | 0.787 ± 0.033 | 0.761 ± 0.046 | 0.683 ± 0.085 | 0.714 ± 0.03 | 0.6329 ± 0.0015 | 0.629 ± 0.023
1.979 µg/ml | 0.732 ± 0.058 | 0.73 ± 0.01 | 0.514 ± 0.019 | 0.661 ± 0.028 | 0.533 ± 0.028 | 0.42 ± 0.11 | 0.348 ± 0.12
2.6092 µg/ml | 0.704 ± 0.044 | 0.627 ± 0.05 | 0.449 ± 0.062 | 0.272 ± 0.14 | 0.0167 ± 0.0037 | 0.0579 ± 0.049 | 0.0821 ± 0.071
3.2395 µg/ml | 0.615 ± 0.036 | 0.5792 ± 0.00071 | 0.281 ± 0.047 | 0.0109 ± 0.0067 | 0.0105 ± 0.013 | 0.00127 ± 0.0018 | 0.0178 ± 0.007
3.8697 µg/ml | 0.611 ± 0.071 | 0.483 ± 0.085 | 0.0482 ± 0.053 | 0.0132 ± 0.0012 | 0.0115 ± 0.0016 | 0.0122 ± 0.0039 | 0.0146 ± 0.008
4.5 µg/ml | 0.638 ± 0.071 | 0.343 ± 0.15 | 0.00553 ± 0.0078 | 0.001842 ± 2.2e-06 | 0.00138 ± 0.00032 | 0 | 0.00161 ± 0.0023

CO[C@@]1(NC(=O)C(C(=O)O)c2ccsc2)C(=O)N2[C@@H](C(=O)O)C(C)(C)S[C@@H]21 (stereo partly drawn) [Temocillin]
nitroxoline concentration 0 µg/ml
Settings | growth
0.4088 µg/ml | 0.947 ± 0.075
0.7025 µg/ml | 0.988 ± 0.016
0.8175 µg/ml | 0.9974 ± 0.0036
1.405 µg/ml | 0.562 ± 0.015
1.635 µg/ml | 0.518 ± 0.049
2.81 µg/ml | 0.484 ± 0.081
3.27 µg/ml | 0.504 ± 0.052
